{
  "source": "the supplement of paper PMC8728848",
  "binders": {"B1": {"name": "FedF (Escherichia coli), Q47212 (protein)", "chain": "MRLKYILIIPLLLISLSVFASTLQVDKSVSYDWINSSASSAQVTGTLLGTGKTNTTQMPALYTWQHQIYNVNFIPSSSGTLTCQAGTILVWKNGRETQYALECRVSIHHSSGSINESQWGQQSQVGFGTACGNKKCRFTGFEISLRIPPNAQTYPLSSGDLKGSFSLTNKEVNWSASIYVPAIAKSYRLDTSITLPDTVNLKQNQATPVYYTFSAPSVSNTITGIPNQNDMPSSNVKLTIGPIQSKTTALYVQPDATGSWYDLSKSITMTVVKSSMLNFKGINAKPGNVTLSVPIVFEIQ"}},
  "assay_in_all_cases": "glycan array binding signal (z-score within array); higher = stronger binding",
  "conditions_in_all_cases": "glycan notation: IUPAC condensed, linker removed",
  "key": {"Neu5Ac(a2-3)Gal(b1-4)Glc": {"molecular_target": "Neu5Ac(a2-3)Gal(b1-4)Glc", "in_short": "(§1)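 Glycan array data came from 3228 arrays in the Consortium for Functional Glycomics database, and only arrays with an available protein sequence were kept. Glycan names were put into IUPAC-condensed notation, and columns mapping to the same glycan were averaged. The binding signal is a within-array Z-score, averaged across arrays of one protein sequence run at different concentrations or buffers and across linkers. A negative Z-score can be read as non-binding.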"}, "[1]": {"molecular_target": "Neu5Ac(a2-3)Gal(b1-4)GlcNAc", "in_short": "as §1"}, "[2]": {"molecular_target": "Neu5Ac(a2-3)Gal(b1-4)GlcNAc(b1-2)Man(a1-3)[GlcNAc(b1-2)Man(b1-4)GlcNAc(b1-2)Man(a1-6)]Man(b1-4)GlcNAc(b1-4)GlcNAc", "in_short": "as §1"}, "[3]": {"molecular_target": "Neu5Ac(a2-3)Gal(b1-4)GlcNAc(b1-2)Man(a1-3)[Neu5Ac(a2-3)Gal(b1-4)GlcNAc(b1-2)Man(a1-6)]Man(b1-4)GlcNAc(b1-4)GlcNAc", "in_short": "as §1"}, "[4]": {"molecular_target": "Neu5Ac(a2-3)Gal(b1-4)GlcNAc(b1-2)Man(a1-3)[Neu5Ac(a2-6)Gal(b1-4)GlcNAc(b1-2)Man(a1-6)]Man(b1-4)GlcNAc(b1-4)GlcNAc", "in_short": "as §1"}, "[5]": {"molecular_target": "Neu5Ac(a2-3)Gal(b1-4)GlcNAc(b1-3)Gal", "in_short": "as §1"}, "[6]": {"molecular_target": "Neu5Ac(a2-3)Gal(b1-4)GlcNAc(b1-3)Gal(b1-3)GlcNAc", "in_short": "as §1"}, "[7]": {"molecular_target": "Neu5Ac(a2-3)Gal(b1-4)GlcNAc(b1-3)Gal(b1-4)GlcNAc", "in_short": "as §1"}, "[8]": {"molecular_target": "Neu5Ac(a2-3)Gal(b1-4)GlcNAc(b1-3)Gal(b1-4)GlcNAc(b1-3)Gal(b1-4)GlcNAc", "in_short": "as §1"}, "[9]": {"molecular_target": "Neu5Ac(a2-3)Gal(b1-4)GlcNAc(b1-3)Gal(b1-4)[Fuc(a1-3)]GlcNAc", "in_short": "as §1"}, "[10]": {"molecular_target": "Neu5Ac(a2-3)Gal(b1-4)GlcNAc(b1-3)GalNAc", "in_short": "as §1"}, "[11]": {"molecular_target": "Neu5Ac(a2-3)Gal(b1-4)GlcNAc(b1-6)[Gal(b1-3)]GalNAc", "in_short": "as §1"}, "[12]": {"molecular_target": "Neu5Ac(a2-3)Gal(b1-4)GlcNAc(b1-6)[Neu5Ac(a2-3)Gal(b1-3)]GalNAc", "in_short": "as §1"}, "[13]": {"molecular_target": "Neu5Ac(a2-3)Gal(b1-4)GlcNAc6S", "in_short": "as §1"}, "[14]": {"molecular_target": "Neu5Ac(a2-3)Gal(b1-4)[Fuc(a1-3)]GlcNAc", "in_short": "as §1"}, "[15]": {"molecular_target": "Neu5Ac(a2-3)Gal(b1-4)[Fuc(a1-3)]GlcNAc(b1-3)Gal", "in_short": "as §1"}, "[16]": {"molecular_target": "Neu5Ac(a2-3)Gal(b1-4)[Fuc(a1-3)]GlcNAc(b1-3)Gal(b1-4)GlcNAc", "in_short": "as §1"}, "[17]": {"molecular_target": "Neu5Ac(a2-3)Gal(b1-4)[Fuc(a1-3)]GlcNAc(b1-3)Gal(b1-4)[Fuc(a1-3)]GlcNAc(b1-3)Gal(b1-4)[Fuc(a1-3)]GlcNAc", "in_short": "as §1"}, "[18]": {"molecular_target": "Neu5Ac(a2-3)Gal(b1-4)[Fuc(a1-3)]GlcNAc(b1-3)GalNAc", "in_short": "as §1"}, "[19]": {"molecular_target": "Neu5Ac(a2-3)Gal(b1-4)[Fuc(a1-3)]GlcNAc(b1-6)[Gal(b1-3)]GalNAc", "in_short": "as §1"}, "[20]": {"molecular_target": "Neu5Ac(a2-3)Gal(b1-4)[Fuc(a1-3)]GlcNAc6S", "in_short": "as §1"}, "[21]": {"molecular_target": "Neu5Ac(a2-3)Gal6S(b1-4)GlcNAc", "in_short": "as §1"}, "[22]": {"molecular_target": "Neu5Ac(a2-3)Gal6S(b1-4)[Fuc(a1-3)]GlcNAc", "in_short": "as §1"}, "Neu5Ac(a2-3)GalNAc": {"molecular_target": "Neu5Ac(a2-3)GalNAc", "in_short": "as §1"}, "[23]": {"molecular_target": "Neu5Ac(a2-3)GalNAc(b1-4)GlcNAc", "in_short": "as §1"}, "[24]": {"molecular_target": "Neu5Ac(a2-3)[GalNAc(b1-4)]Gal(b1-4)Glc", "in_short": "as §1"}, "[25]": {"molecular_target": "Neu5Ac(a2-3)[GalNAc(b1-4)]Gal(b1-4)GlcNAc", "in_short": "as §1"}, "[26]": {"molecular_target": "Neu5Ac(a2-3)[GalNAc(b1-4)]Gal(b1-4)GlcNAc(b1-3)GalNAc", "in_short": "as §1"}, "[27]": {"molecular_target": "Neu5Ac(a2-3)[Neu5Ac(a2-6)]GalNAc", "in_short": "as §1"}, "Neu5Ac(a2-6)Gal": {"molecular_target": "Neu5Ac(a2-6)Gal", "in_short": "as §1"}, "[28]": {"molecular_target": "Neu5Ac(a2-6)Gal(b1-3)GlcNAc(b1-3)[Gal(b1-4)GlcNAc(b1-6)]Gal(b1-4)Glc", "in_short": "as §1"}, "Neu5Ac(a2-6)Gal(b1-4)Glc": {"molecular_target": "Neu5Ac(a2-6)Gal(b1-4)Glc", "in_short": "as §1"}, "[29]": {"molecular_target": "Neu5Ac(a2-6)Gal(b1-4)GlcNAc", "in_short": "as §1"}, "[30]": {"molecular_target": "Neu5Ac(a2-6)Gal(b1-4)GlcNAc(b1-2)Man(a1-3)Man(b1-4)GlcNAc(b1-4)GlcNAc", "in_short": "as §1"}, "[31]": {"molecular_target": "Neu5Ac(a2-6)Gal(b1-4)GlcNAc(b1-2)Man(a1-3)[Gal(b1-4)GlcNAc(b1-2)Man(a1-6)]Man(b1-4)GlcNAc(b1-4)GlcNAc", "in_short": "as §1"}, "[32]": {"molecular_target": "Neu5Ac(a2-6)Gal(b1-4)GlcNAc(b1-2)Man(a1-3)[GlcNAc(b1-2)Man(a1-6)]Man(b1-4)GlcNAc(b1-4)GlcNAc", "in_short": "as §1"}, "[33]": {"molecular_target": "Neu5Ac(a2-6)Gal(b1-4)GlcNAc(b1-2)Man(a1-3)[GlcNAc(b1-2)Man(b1-4)GlcNAc(b1-2)Man(a1-6)]Man(b1-4)GlcNAc(b1-4)GlcNAc", "in_short": "as §1"}, "[34]": {"molecular_target": "Neu5Ac(a2-6)Gal(b1-4)GlcNAc(b1-2)Man(a1-3)[Man(a1-6)]Man(b1-4)GlcNAc(b1-4)GlcNAc", "in_short": "as §1"}},
  "note": "The other results are listed elsewhere or left out.",
  "data": [
    {"binder": "B1", "values": [
      {"measurement": "glycan array binding signal (z-score)", "setting": "Neu5Ac(a2-3)Gal(b1-4)Glc", "result": -0.222},
      {"measurement": "glycan array binding signal (z-score)", "setting": "[1]", "result": -0.127},
      {"measurement": "glycan array binding signal (z-score)", "setting": "[2]", "result": -0.047},
      {"measurement": "glycan array binding signal (z-score)", "setting": "[3]", "result": 0.254},
      {"measurement": "glycan array binding signal (z-score)", "setting": "[4]", "result": -0.172},
      {"measurement": "glycan array binding signal (z-score)", "setting": "[5]", "result": -0.076},
      {"measurement": "glycan array binding signal (z-score)", "setting": "[6]", "result": -0.179},
      {"measurement": "glycan array binding signal (z-score)", "setting": "[7]", "result": -0.258},
      {"measurement": "glycan array binding signal (z-score)", "setting": "[8]", "result": -0.027},
      {"measurement": "glycan array binding signal (z-score)", "setting": "[9]", "result": -0.292},
      {"measurement": "glycan array binding signal (z-score)", "setting": "[10]", "result": -0.048},
      {"measurement": "glycan array binding signal (z-score)", "setting": "[11]", "result": 0.025},
      {"measurement": "glycan array binding signal (z-score)", "setting": "[12]", "result": -0.185},
      {"measurement": "glycan array binding signal (z-score)", "setting": "[13]", "result": 0.209},
      {"measurement": "glycan array binding signal (z-score)", "setting": "[14]", "result": -0.164},
      {"measurement": "glycan array binding signal (z-score)", "setting": "[15]", "result": -0.471},
      {"measurement": "glycan array binding signal (z-score)", "setting": "[16]", "result": -0.016},
      {"measurement": "glycan array binding signal (z-score)", "setting": "[17]", "result": -0.158},
      {"measurement": "glycan array binding signal (z-score)", "setting": "[18]", "result": -0.084},
      {"measurement": "glycan array binding signal (z-score)", "setting": "[19]", "result": 0.222},
      {"measurement": "glycan array binding signal (z-score)", "setting": "[20]", "result": 0.245},
      {"measurement": "glycan array binding signal (z-score)", "setting": "[21]", "result": 0.108},
      {"measurement": "glycan array binding signal (z-score)", "setting": "[22]", "result": -0.122},
      {"measurement": "glycan array binding signal (z-score)", "setting": "Neu5Ac(a2-3)GalNAc", "result": -0.336},
      {"measurement": "glycan array binding signal (z-score)", "setting": "[23]", "result": -0.221},
      {"measurement": "glycan array binding signal (z-score)", "setting": "[24]", "result": -0.336},
      {"measurement": "glycan array binding signal (z-score)", "setting": "[25]", "result": -0.135},
      {"measurement": "glycan array binding signal (z-score)", "setting": "[26]", "result": 0.24},
      {"measurement": "glycan array binding signal (z-score)", "setting": "[27]", "result": -0.139},
      {"measurement": "glycan array binding signal (z-score)", "setting": "Neu5Ac(a2-6)Gal", "result": 0.086},
      {"measurement": "glycan array binding signal (z-score)", "setting": "[28]", "result": -0.171},
      {"measurement": "glycan array binding signal (z-score)", "setting": "Neu5Ac(a2-6)Gal(b1-4)Glc", "result": -0.197},
      {"measurement": "glycan array binding signal (z-score)", "setting": "[29]", "result": -0.257},
      {"measurement": "glycan array binding signal (z-score)", "setting": "[30]", "result": -0.086},
      {"measurement": "glycan array binding signal (z-score)", "setting": "[31]", "result": -0.172},
      {"measurement": "glycan array binding signal (z-score)", "setting": "[32]", "result": -0.171},
      {"measurement": "glycan array binding signal (z-score)", "setting": "[33]", "result": 0.022},
      {"measurement": "glycan array binding signal (z-score)", "setting": "[34]", "result": -0.11}
    ]}
  ]
}
